# Columns and labels:
# [1] = in vivo; cited from earlier work
# [2] = tested on: phosphatidylethanolamine-binding protein (PEBP); conditions: cited from earlier work
# human creatine kinase BB = human creatine kinase BB (Homo sapiens, UniProt P12277); assay: Incubation of human creatine kinase BB with naloxone, Western blot; format: binding
# [3] = target: creatine kinase B—alkaloids complexes (Mus musculus, UniProt Q04447); assay: Competition test on mouse brain extracts with naloxone, Western blot with anti-morphine antibody 6D6; conditions: mouse brain extracts incubated with naloxone 12 h at 37° C., ratio 1:1 m/m; urea buffer without heat treatment; 6D6 antibody
# [4] = tested on: opiate-creatine kinase B complexes; assay: Dissociation of opiate-creatine kinase B complexes by treatments; format: binding; conditions: treatment with antagonist
# [5] = tested on: anti-morphine antibody 6D6; conditions: cited from earlier work
# [6] = Dissociation of the morphine-type molecule from creatine kinase by urea buffer TP5 with or without heat treatment; format: binding; conditions: 0.5 μg on gel; 100° C., 10 minutes; 6D6 antibody
# Description: The dissociation of the morphine-type molecule of creatine kinase BB (deposit 0.5 μg on gel) treated in the presence of urea (TP5) whether or not combined with heat treatment (100° C., 10 minutes), was tested and immunodetected by Western blotting by means of the anti-morphine antibody 6D6.
# [7] = target: rabbit creatine kinase MM (Oryctolagus cuniculus, UniProt P00563); assay: Effect of morphine antagonist on rabbit creatine kinase MM; conditions: data not presented
# [8] = Morphine-type immunoreactivity of purified creatine kinase, Western blot with 6D6 antibody; format: binding; conditions: for morphine-type immunoreactivity: 2 μg on SDS-PAGE, 6D6 antibody, bands at 42 and 84 kDa (monomer and dimer); for binding of morphine and/or morphine derivatives: overall conclusion of the experiments
# Description: For this purpose, 2 μg of human creatine kinase BB was deposited on SDS-PAGE, then transferred onto membrane treated with the 6D6 antibody.
# human creatine kinase BB, sequence (P12277 whole entry): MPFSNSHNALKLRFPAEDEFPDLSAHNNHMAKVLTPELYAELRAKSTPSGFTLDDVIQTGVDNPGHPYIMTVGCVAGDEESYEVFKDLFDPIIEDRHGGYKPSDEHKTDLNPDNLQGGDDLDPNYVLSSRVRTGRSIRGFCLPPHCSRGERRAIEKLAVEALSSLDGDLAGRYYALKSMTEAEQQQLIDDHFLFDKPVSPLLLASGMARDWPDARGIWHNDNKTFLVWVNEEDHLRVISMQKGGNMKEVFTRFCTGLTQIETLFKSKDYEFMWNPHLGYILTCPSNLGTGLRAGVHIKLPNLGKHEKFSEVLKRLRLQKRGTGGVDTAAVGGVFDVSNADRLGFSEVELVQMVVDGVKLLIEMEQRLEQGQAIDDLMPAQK
# rabbit creatine kinase MM, sequence (P00563 whole entry): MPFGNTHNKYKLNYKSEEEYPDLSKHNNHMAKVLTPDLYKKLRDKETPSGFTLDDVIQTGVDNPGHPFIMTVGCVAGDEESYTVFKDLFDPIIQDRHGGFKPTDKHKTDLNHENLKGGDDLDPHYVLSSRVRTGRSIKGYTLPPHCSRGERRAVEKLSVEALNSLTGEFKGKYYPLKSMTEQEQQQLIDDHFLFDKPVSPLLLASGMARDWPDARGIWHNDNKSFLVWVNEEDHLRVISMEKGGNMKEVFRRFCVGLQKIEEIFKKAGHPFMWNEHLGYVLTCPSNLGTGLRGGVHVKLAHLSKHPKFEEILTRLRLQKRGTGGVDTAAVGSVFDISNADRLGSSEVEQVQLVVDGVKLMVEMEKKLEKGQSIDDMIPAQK
# creatine kinase B—alkaloids complexes, sequence (Q04447 whole entry, one chain of several): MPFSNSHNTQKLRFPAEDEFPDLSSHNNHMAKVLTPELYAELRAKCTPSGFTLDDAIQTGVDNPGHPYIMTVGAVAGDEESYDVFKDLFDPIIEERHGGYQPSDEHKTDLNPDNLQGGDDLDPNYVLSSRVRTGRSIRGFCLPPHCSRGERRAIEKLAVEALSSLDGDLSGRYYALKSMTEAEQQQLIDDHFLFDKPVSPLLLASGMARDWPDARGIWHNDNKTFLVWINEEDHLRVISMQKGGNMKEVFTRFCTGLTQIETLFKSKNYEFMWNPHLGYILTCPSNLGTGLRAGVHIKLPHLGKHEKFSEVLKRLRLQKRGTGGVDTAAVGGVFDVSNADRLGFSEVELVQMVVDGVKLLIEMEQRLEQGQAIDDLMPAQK
molecule,measurement,setting,value
"CN1CC[C@]23c4c5ccc(O[C@@H]6O[C@H](C(=O)O)[C@@H](O)[C@H](O)[C@H]6O)c4O[C@H]2[C@@H](O)C=C[C@H]3[C@H]1C5 [M3G, morphine-3-glucuronide]",analgesic activity,[1],devoid of analgesic activity
same,binding affinity to PEBP,[2],low affinity
"CN1CC[C@]23c4c5ccc(O)c4O[C@H]2[C@@H](O[C@@H]2O[C@H](C(=O)O)[C@@H](O)[C@H](O)[C@H]2O)C=C[C@H]3[C@H]1C5 [M6G, morphine-6-glucuronide]",binding affinity to PEBP,[2],low affinity
CN1CC[C@]23c4c5ccc(O)c4O[C@H]2[C@@H](O)C=C[C@H]3[C@H]1C5 [morphine],binding affinity to PEBP,[2],does not have any affinity
C=CCN1CC[C@]23c4c5ccc(O)c4O[C@H]2C(=O)CC[C@@]3(O)[C@H]1C5 [naloxone],alkaloid labeling (morphine-type molecule) relative to the control experiments,"human creatine kinase BB; creatine kinase BB 1 μg incubated with naloxone 12 h at 37° C., urea buffer TP5 without heat treatment, 6D6 antibody",significantly decreased
same,immunoreactivity with the anti-CK-BB antibody,"human creatine kinase BB; same samples, incubated with naloxone 12 h at 37° C., data not presented",unchanged
same,alkaloid labeling relative to the control experiments,[3],significantly decreased
same,dissociation of opiate-creatine kinase B complexes,[4],dissociate
same,cross-reaction with antibody 6D6 in ELISA,[5],did not display cross-reaction
O=C1CC[C@@]2(O)[C@H]3Cc4ccc(O)c5c4[C@@]2(CCN3CC2CC2)[C@H]1O5 [naltrexone],dissociation of opiate-creatine kinase B complexes,[4],dissociate
"CK-M: Muscular creatine kinase, rabbit, ref. C3755, Sigma Aldrich",morphine-type immunolabeling after urea (TP5) with or without heat treatment,[6],only lost when the complex has undergone the heat treatments combined with urea
same,replacement of bound morphine-type molecules by a morphine analog (alkaloid labeling),[7],Identical results
same,morphine-type immunoreactivity,[8],identical result
same,binding of morphine and/or morphine derivatives,[8],"bind strongly, noncovalently"
"creatine kinase BB: Commercial purified human brain creatine kinase BB (ref. 30-AC55, Fitzgerald), active form",morphine-type immunolabeling after urea (TP5) with or without heat treatment,[6],only lost when the complex has undergone the heat treatments combined with urea
same,morphine-type immunoreactivity,[8],two immunoreactive bands
same,binding of morphine and/or morphine derivatives,[8],"bind strongly, noncovalently"

# Source: US20130336953A1, “USE OF CREATINE KINASE FOR PREVENTING OR TREATING ADDICTION TO OPIATES” (UNIVERSITÉ DE STRABOURG, priority 2011, published 2013)
